Data on one molecule can be found in PMC11284791, “Ribosome External Electric Field Regulates Metabolic Enzyme Activity: The RAMBO Effect” (The Journal of Physical Chemistry. B, 2024).

The assay addresses T1, C-terminal His-tagged triosephosphate isomerase from G. gallus (G. gallus, UniProt P00940 1-248).
T1 construct: Triosephosphate isomerase, G. gallus, 248 residues, as m1, with a C-terminal His tag; also called His-TPI; His-tagged TPI; source: E. coli BL21 (DE3), pET-21a(+)-His-TPI, purified (Ni-NTA); not shown: His tag, C-terminal, kept
As to the kind of experiment: cross-linking; 100 μM His-TPI and 10 μM ribosomes with 2 mM BS(PEG)5 (21.7 Å arm); 10 mM sodium phosphate pH 7.5, 100 mM NaCl, 10 mM MgCl2, RT, 30 min; His-TPI recaptured on Ni-NTA in 8 M urea; the ~65 kDa band was excised, digested with trypsin and analysed by LC-MS/MS (pLink 2). To be noted: both partners purified.

T1 sequence (P00940 whole entry): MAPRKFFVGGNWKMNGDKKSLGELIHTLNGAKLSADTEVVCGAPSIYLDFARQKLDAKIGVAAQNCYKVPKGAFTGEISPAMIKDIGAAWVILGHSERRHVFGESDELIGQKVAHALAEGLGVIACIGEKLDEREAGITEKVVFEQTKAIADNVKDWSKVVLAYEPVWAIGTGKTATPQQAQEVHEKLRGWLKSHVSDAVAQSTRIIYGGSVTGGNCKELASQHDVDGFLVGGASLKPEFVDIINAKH

B1: Ribosomal protein L11 (natural protein)
chain: not shown
notes: 50S ribosomal protein L11, E. coli (strain MRE600), within the intact ribosome; Stood in the assay as a subunit of m3; also called RP L11; ribosome protein L11; source: part of intact 70S ribosomes purified from E. coli MRE600
Regarding B1, the binding result was “binds”.
